The results in this text go back to paper PMC5515408.

This is one part of the list. At the low end of the ranking the order means little.

This test deals with MAX:MAX (p21) (UniProt P61244-2). In words: protein-binding microarray (anti-MAX antibody). To be noted: PBM: 15 mM Tris-HCl pH 7.5, 100 mM KCl, 0.075% NP40, 7.5 mM beta-mercaptoethanol, 375 ng/ul BSA, 8 ng/ul poly(dA-dT):(dA-dT), 550 ng complex, 60 min, room …; high values mean tight binding; double strand, one strand shown; sequences stand for … in CCGGC…TTAATAGCTAAGATTACTATATCGACG
Regarding TGACTGTTTGTA, the binding signal (log2 normalized fluorescence) is -0.256. In turn, TGAGTGTGCGTA registered a binding signal (log2 normalized fluorescence) of 0.941. Take TGAAACCTGGTA: the binding signal (log2 normalized fluorescence) was 0.073.

TGGCAACTGGTA had a binding signal (log2 normalized fluorescence) of -0.185. In the case of GGATACGTGGTA, the binding signal (log2 normalized fluorescence) is 1.37.

In turn, TGACTTGTTGTA showed a binding signal (log2 normalized fluorescence) of -0.435.

Take TGAAAAAAGGTA: the binding signal (log2 normalized fluorescence) is -0.932. With TTGCACTTGGTA the figure was 0.423; with TGAAAAGCTGTA, -0.605; with TGAGGCTCAGTA, -0.598.

Sequence GGCCACGTGGTA came in with a binding signal (log2 normalized fluorescence) of 3.16. TGATGCGATGTA yielded a binding signal (log2 normalized fluorescence) of -0.205. The sequence TGACGACCCGTA returned a binding signal (log2 normalized fluorescence) of -0.197. TGATGAGGCGTA: the binding signal (log2 normalized fluorescence) is -0.459. The figure for TGAAGAACGGTA is -0.55. With TGAGGGGACGTA the figure was 0.311; with TGATGGAAAGTA, -0.184. Turning to TGACATACTGTA, the binding signal (log2 normalized fluorescence) stood at 0.606. The figure for TGACCCACCGTA is -0.0369.

Sequence TGACGGATGGTA returned a binding signal (log2 normalized fluorescence) of 0.163.

Regarding TGATCAGCGGTA, the binding signal (log2 normalized fluorescence) was found to be 0.0982. The figure for TGACCCTTCGTA is -0.598; for TGACACGTTATA it is 2.87. TGAGGGATAGTA had a binding signal (log2 normalized fluorescence) of -0.743. With TGATCTACAGTA the figure was -1.13; with TGACCCGTGGTC, 2.7; with TGAATTTTCGTA, -1.03. As to TGATACGTGGCA, the binding signal (log2 normalized fluorescence) was found to be 1.26. In turn, TGAAAGGGGGTA registered a binding signal (log2 normalized fluorescence) of 1.01. Take TGAACTAACGTA: the binding signal (log2 normalized fluorescence) was -0.626.

TGACCCCATGTA had a binding signal (log2 normalized fluorescence) of 2.12. As for TTCGTCCAAGGC, the binding signal (log2 normalized fluorescence) was -1.14. As for TGATGCCTGGTA, the binding signal (log2 normalized fluorescence) was determined as 0.158. In the case of CAATGTCTTAAC, the binding signal (log2 normalized fluorescence) was 0.0404. Sequence TGAGGCAAGGTA returned a binding signal (log2 normalized fluorescence) of 0.0957. The figure for TGATTTGATGTA is -0.882. TGAAGGTGGGTA: the binding signal (log2 normalized fluorescence) was 0.192. The figure for TGAGCTTTGGTA is -1.42. Take TGGCACACGGTT: the binding signal (log2 normalized fluorescence) amounted to 1.59.

On to TGAACCGCGGTA, for which the binding signal (log2 normalized fluorescence) is -0.184. Regarding TGATGGTGCGTA, the binding signal (log2 normalized fluorescence) was found to be 0.65.

TGAAACAGAGTA displayed a binding signal (log2 normalized fluorescence) of -0.664. The sequence TTCTTTATCACG had a binding signal (log2 normalized fluorescence) of 1.16. The figure for TGAATACTCGTA is -0.922; for TGACCCTGTGTA it is 0.4. The figure for TGACGGAATGTA is -0.194. In the case of TGAGGGCCAGTA, the binding signal (log2 normalized fluorescence) was -0.677. With TCGGTCTTCCTC the figure was -1.71.

Regarding TGAGGGCATGTA, the binding signal (log2 normalized fluorescence) was found to be 1.31. The figure for TGAATTGTGGTA is 0.192; for TGAACATACGTA it is 0.737.

As to GCACACGTGGTA, the binding signal (log2 normalized fluorescence) came out at 3.29. With TGACACGACGTA the figure was 0.957. TGAGTAATGGTA: the binding signal (log2 normalized fluorescence) was -0.395.

In turn, TATCACGTGGGA returned a binding signal (log2 normalized fluorescence) of 3.05. Regarding TGAGGCCGTGTA, the binding signal (log2 normalized fluorescence) was -0.276. The figure for TGAACTCCTGTA is 0.0348; for TGATTCCTGGTA it is -0.681. With TGATTTTAAGTA the figure was -0.913; with TGAAGAGTTGTA, -0.595. With TGAGGGCCCGTA the figure was -0.285.

TGGGTCGTGGTA gave a binding signal (log2 normalized fluorescence) of 0.33. Consider TGACTTGTGGTA, for which the binding signal (log2 normalized fluorescence) worked out at 0.859. The figure for TGAGCAATAGTA is -0.757; for TGATTGCTCGTA it is -0.459; for TGAAAACGAGTA it is 0.337.

Regarding TGAGAGCTGGTA, the binding signal (log2 normalized fluorescence) was -0.855.

Take TGACCAACAGTA: the binding signal (log2 normalized fluorescence) was -0.301. In turn, TGAGCCCTTGTA returned a binding signal (log2 normalized fluorescence) of -1.09. With TGAAGCGATGTA the figure was -0.278; with TGAGCGAGAGTA, -0.652.

Sequence TGAGACGGGGTA had a binding signal (log2 normalized fluorescence) of -0.19. The figure for TGAGGGTGGGTA is 0.835. With TGATCGAATGTA the figure was -0.592; with CGACACGTGTTA, 3.4; with TGATTTTTTGTA, -1.53. With TGAGCGTAGGTA the figure was -0.692. With TGAGTCCTGGTA, the binding signal (log2 normalized fluorescence) is -1.17.

TGACGCTCCGTA registered a binding signal (log2 normalized fluorescence) of -0.517. The sequence TGGCACCTGGTT had a binding signal (log2 normalized fluorescence) of 1.82. The figure for TGACAAACTGTA is -0.246; for GCGCACGTGGTA it is 3.39; for TGAGAGTCTGTA it is -1.05. With TGAAAAATTGTA the figure was -1.16; with TGACCCATTGTA, -0.0278; with TGACGTCTTGTA, -0.677. TGACAGTAGGTA returned a binding signal (log2 normalized fluorescence) of -0.344. TGACTAGAAGTA registered a binding signal (log2 normalized fluorescence) of -0.842. With TGAGCTTATGTA the figure was -0.493; with TGACCGAGTGTA, -0.0504.

The sequence TGATATTTCGTA came in with a binding signal (log2 normalized fluorescence) of -1.21. The sequence TGAGGTACGGTA returned a binding signal (log2 normalized fluorescence) of -0.258. The figure for TGAAGGTCTGTA is -0.627; for AGCTGGATACTC it is 1.39; for TTACACGTGGTT it is 3.22. With TGACGCGTTGTA the figure was 1.2; with TGATGCCAAGTA, -0.383; with TGATACGTAGTA, -0.967. The figure for TGAAAGTGAGTA is -0.479; for TGAATTATAGTA it is -1.12.

Sequence TGATTGGAGGTA had a binding signal (log2 normalized fluorescence) of -0.542.

Take TGATTCTTGGTA: the binding signal (log2 normalized fluorescence) is -1.32. With TGAGTCAACGTA the figure was -0.775. Sequence TGATAATGTGTA came in with a binding signal (log2 normalized fluorescence) of 0.335. TGAGGACTCGTA: the binding signal (log2 normalized fluorescence) is -0.745. Take TGATGCACGGTA: the binding signal (log2 normalized fluorescence) was determined as 0.928. The figure for TGACACGTGGAC is 3.07; for TGATGCGAGGTA it is 0.34. With TGACGGGTTGTA the figure was -0.204; with TGACTATACGTA, -0.402.

The sequence TGACACCTGGGA displayed a binding signal (log2 normalized fluorescence) of 1.79.

The sequence TGCCACCTGGTA showed a binding signal (log2 normalized fluorescence) of 2.96.

GGACACGCGGTA showed a binding signal (log2 normalized fluorescence) of 3.26. For TGATAGGCGGTA, the binding signal (log2 normalized fluorescence) is -0.657. The figure for TGACCAGCAGTA is 0.131; for TGACGCTTAGTA it is -0.599.

In the case of TGATGAGACGTA, the binding signal (log2 normalized fluorescence) was -0.441. Consider TGACACTCGGTA, for which the binding signal (log2 normalized fluorescence) came out at 0.352.

The sequence TGAACTCCAGTA gave a binding signal (log2 normalized fluorescence) of -0.79. Take TGAGGTAGAGTA: the binding signal (log2 normalized fluorescence) was -0.816. TGAGCTGGCGTA returned a binding signal (log2 normalized fluorescence) of -0.687.

TGACAATACGTA: the binding signal (log2 normalized fluorescence) is -0.1. With TGACGATGAGTA the figure was -0.407.

For the sequence TGAAACGTGGGA, the binding signal (log2 normalized fluorescence) amounted to 2.73. With TGAATACACGTA the figure was 0.221; with TGATAGCTCGTA, -1.12; with TGATCGGATGTA, -0.344. The sequence TGAGTTTTGGTA registered a binding signal (log2 normalized fluorescence) of -1.18. With TGACTTGACGTA the figure was -0.392; with TGAAAACTAGTA, -0.875. The figure for TGAGCGCTCGTA is -0.608; for TGATTCATTGTA it is -0.754; for TGAGCACGTGTA it is 3.28. With TGATCGGAAGTA, the binding signal (log2 normalized fluorescence) is -0.874. The figure for TGAGTGATGGTA is -0.0812; for TGATGTTATGTA it is -0.0821; for TGACAAGGCGTA it is -0.259. The figure for TGAACACGCGTA is 2.86.
